Target: Cathepsin L (CatL) (Homo sapiens, UniProt P07711)
Test: biochemical

CC(C)(C)NC(=O)N[C@H](C(=O)N1C[C@H]2[C@@H]([C@H]1C(=O)NC(CC1CCC1)C(=O)C(N)=O)C2(C)C)C(C)(C)C (stereo partly shown) [Boceprevir, boceprevir, reference compound]
IC50: 500 nM
